Test results published in patent US20170307628A1 (EIDGENOESSISCHE TECHNISCHE HOCHSCHULE ZURICH, published 2017).
Blank lines part the entries; values can stand above or below the binder they belong to.

Tests used:
[1] = target: T1, EGFR on cells (UniProt P00533); assay: FACS MDA-MB-468 cells, lysate
T1 construct: whole, on cells; also called epidermal growth factor receptor

[2] = target: T2, bovine serum albumin (bovine, UniProt P02769); assay: ELISA on biotinylated BSA on streptavidin wells, anti-myc 9E10
T2 construct: also called BSA

[3] = target: T3, chymase (UniProt P23946 22-247); assay: cell-based or functional assay
T3 sequence (looked up): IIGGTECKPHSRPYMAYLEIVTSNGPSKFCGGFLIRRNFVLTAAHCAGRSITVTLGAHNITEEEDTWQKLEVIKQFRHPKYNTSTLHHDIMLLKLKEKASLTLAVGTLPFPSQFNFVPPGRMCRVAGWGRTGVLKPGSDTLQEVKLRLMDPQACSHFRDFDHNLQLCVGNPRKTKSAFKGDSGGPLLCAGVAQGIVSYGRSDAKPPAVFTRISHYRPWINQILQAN

[4] = target: T3, chymase; assay: SPR BIAcore, biotinylated chymase on SA chip
[5] = target: T4, recombinant human IL-17A (human, UniProt Q16552 20-155, limits assumed); assay: cell-based or functional assay
[6] = target: T4, recombinant human IL-17A; assay: SPR BIAcore, biotinylated IL-17A on SA chip
T4 sequence (Q16552 20-155 limits assumed): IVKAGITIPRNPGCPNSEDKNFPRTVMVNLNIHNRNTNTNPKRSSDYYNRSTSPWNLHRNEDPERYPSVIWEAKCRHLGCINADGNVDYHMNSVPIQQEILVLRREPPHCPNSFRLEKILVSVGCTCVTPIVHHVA

[7] = target: T5, mouse serum albumin (mouse, UniProt P07724 25-608); assay: ELISA of soluble protein on coated albumins
T5 construct: also called MSA
T5 sequence (P07724 25-608 limits assumed): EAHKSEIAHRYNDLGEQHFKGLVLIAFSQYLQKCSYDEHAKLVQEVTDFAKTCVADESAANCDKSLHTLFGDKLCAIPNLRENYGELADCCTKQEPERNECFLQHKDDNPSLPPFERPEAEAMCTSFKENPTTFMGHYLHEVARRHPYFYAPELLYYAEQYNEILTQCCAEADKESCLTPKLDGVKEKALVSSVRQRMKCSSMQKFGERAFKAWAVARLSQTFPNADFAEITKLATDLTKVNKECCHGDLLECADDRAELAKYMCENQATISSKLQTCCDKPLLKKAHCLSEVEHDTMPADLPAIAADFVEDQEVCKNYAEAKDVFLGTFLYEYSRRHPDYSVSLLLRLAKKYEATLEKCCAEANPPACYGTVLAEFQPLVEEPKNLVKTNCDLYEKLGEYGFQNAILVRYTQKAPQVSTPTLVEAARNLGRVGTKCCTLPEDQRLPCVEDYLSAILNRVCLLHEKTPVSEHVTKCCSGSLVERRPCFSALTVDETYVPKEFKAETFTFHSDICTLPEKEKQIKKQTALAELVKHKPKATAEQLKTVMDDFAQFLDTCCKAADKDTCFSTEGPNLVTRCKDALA

[8] = target: T2, bovine serum albumin; assay: ELISA of soluble protein on coated albumins
T2 sequence (P02769 25-607 limits assumed): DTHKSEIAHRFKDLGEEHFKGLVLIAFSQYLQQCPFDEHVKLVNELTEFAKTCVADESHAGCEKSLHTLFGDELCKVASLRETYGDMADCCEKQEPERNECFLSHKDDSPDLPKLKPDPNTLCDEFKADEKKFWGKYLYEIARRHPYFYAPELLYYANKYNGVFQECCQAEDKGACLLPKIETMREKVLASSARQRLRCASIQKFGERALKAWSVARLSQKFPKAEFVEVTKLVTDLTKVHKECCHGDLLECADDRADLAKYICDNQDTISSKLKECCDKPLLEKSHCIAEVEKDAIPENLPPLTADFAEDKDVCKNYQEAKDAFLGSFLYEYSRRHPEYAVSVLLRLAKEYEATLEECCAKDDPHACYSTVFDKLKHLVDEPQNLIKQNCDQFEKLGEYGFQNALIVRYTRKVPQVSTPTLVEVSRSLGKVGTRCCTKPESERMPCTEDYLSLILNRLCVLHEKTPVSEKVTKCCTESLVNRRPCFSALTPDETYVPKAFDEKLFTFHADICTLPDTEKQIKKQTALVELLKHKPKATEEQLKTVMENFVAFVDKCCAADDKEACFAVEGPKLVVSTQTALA

[9] = target: T6, ovalbumin (chicken, UniProt P01012 2-386); assay: ELISA of soluble protein on coated albumins
T6 construct: also called hen egg white albumin; Albumin from chicken egg white
T6 sequence (looked up): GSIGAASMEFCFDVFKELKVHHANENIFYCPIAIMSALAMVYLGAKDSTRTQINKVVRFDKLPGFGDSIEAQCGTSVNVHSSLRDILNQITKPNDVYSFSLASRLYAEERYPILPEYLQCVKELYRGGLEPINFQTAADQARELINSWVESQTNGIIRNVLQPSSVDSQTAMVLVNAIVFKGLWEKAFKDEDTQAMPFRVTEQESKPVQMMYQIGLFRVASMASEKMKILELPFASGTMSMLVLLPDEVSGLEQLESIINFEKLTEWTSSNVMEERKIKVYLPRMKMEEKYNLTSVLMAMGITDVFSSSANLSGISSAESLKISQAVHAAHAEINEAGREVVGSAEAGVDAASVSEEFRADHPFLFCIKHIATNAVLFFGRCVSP

[10] = target: T7, human serum albumin (human, UniProt P02768); assay: ELISA of soluble protein on coated albumins
T7 construct: also called HSA

[11] = target: T8, rat serum albumin (rat, UniProt P02770 25-608); assay: ELISA of soluble protein on coated albumins
T8 construct: also called RSA
T8 sequence (P02770 25-608 limits assumed): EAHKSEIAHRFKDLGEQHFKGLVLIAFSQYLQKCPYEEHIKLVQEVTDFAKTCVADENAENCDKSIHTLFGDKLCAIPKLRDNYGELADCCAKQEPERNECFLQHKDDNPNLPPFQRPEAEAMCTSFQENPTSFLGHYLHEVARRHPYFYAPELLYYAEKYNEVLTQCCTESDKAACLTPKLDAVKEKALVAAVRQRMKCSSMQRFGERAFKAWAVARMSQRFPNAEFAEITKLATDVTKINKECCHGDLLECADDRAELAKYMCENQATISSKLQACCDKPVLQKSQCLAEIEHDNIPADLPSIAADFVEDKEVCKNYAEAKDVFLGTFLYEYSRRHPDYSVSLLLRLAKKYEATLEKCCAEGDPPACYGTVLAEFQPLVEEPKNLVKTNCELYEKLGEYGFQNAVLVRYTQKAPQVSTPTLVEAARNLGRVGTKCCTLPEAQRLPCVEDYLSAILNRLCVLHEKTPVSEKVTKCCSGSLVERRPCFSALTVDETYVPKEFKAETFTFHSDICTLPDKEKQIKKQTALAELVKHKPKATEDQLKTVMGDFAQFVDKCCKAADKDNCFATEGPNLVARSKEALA

B2: SEQ ID NO 419 (designed binder)
chain: GVTLFVALYDYEARGLNRMFDLSFHKGEKFQILLPQEGDWWEARSLTTGETGYIPSNYVAPVDSIQ
notes: myc-His tagged
binding result [1]: binds

B4: H2 (designed binder)
chain: GVTLFVALYDYQADRWTDLSFHKGEKFQILRFDIGDWWEARSLTTGETGYIPSNYVAPVDSIQ
binding result [2]: no binding (tested: 200 nM)

B5: D7 (designed binder)
chain: GVTLFVALYDYQADRWTDLSFHKGEKFQILSFHVGDWWEARSLTTGETGYIPSNYVAPVDSIQ
binding result [2]: no binding (tested: 200 nM)

B6: E4 (chymase binder) (designed binder)
chain: GVTLFVALYDYNATRWTDLSFHKGEKFQILEFGPGDWWEARSLTTGETGYIPSNYVAPVDSIQ
IC50 (nM), inhibition of chymase activity, fluorescent substrate [3]: 2 nM
Kd [4]: 0.9 nM
koff [4]: 0.00066 s⁻¹
binding result [2]: no binding (tested: 200 nM)

B8: SEQ ID NO 418 (designed binder)
chain: GVTLFVALYDYEARGLNRMFDLSFHKGEKFQILDTSESGDWWEARSLTTGETGYIPSNYVAPVDSIQ
notes: myc-His tagged
binding result [1]: binds

B10: F12 (designed binder)
chain: GVTLFVALYDYRAERSTDLSFHKGEKFQILDMTVPNGDWWEARSLTTGETGYIPSNYVAPVDSIQ
binding result [2]: no binding (tested: 200 nM)

B11: G2.3 (designed binder)
chain: GVTLFVALYDYNATRWTDLSFHKGEKFQILDWTTANGDWWEARSLTTGETGYIPSNYVAPVDSIQ
binding result [2]: no binding (tested: 200 nM)

B12: Fyn SH3 wild type protein (other)
chain: GVTLFVALYDYEARTEDDLSFHKGEKFQILNSSEGDWWEARSLTTGETGYIPSNYVAPVDSIQ
notes: control protein; also called Fyn SH3 wt; wild-type Fyn SH3 domain
binding result [7]: no binding
binding result [8]: no binding
binding result [9]: no binding
binding result [10]: no binding
binding result [11]: no binding

B13: A4 (designed binder)
chain: GVTLFVALYDYQADRWTDLSFHKGEKFQILDASPPGDWWEARSLTTGETGYIPSNYVAPVDSIQ
binding result [2]: no binding (tested: 200 nM)

More lines, now with the values ahead:

binding result [1]: binds
B1: SEQ ID NO 415 (designed binder)
chain: GVTLFVALYDYEARGLHRMFDLSFHKGEKFQILNRETGDWWEARSLTTGETGYIPSNYVAPVDSIQ
notes: myc-His tagged

binding result [1]: binds
B3: SEQ ID NO 420 (designed binder)
chain: GVTLFVALYDYEARGLHRMFDLSFHKGEKFQILDRTNGDWWEARSLTTGETGYIPSNYVAPVDSIQ
notes: myc-His tagged

binding result [2]: no binding (tested: 200 nM)
B7: B5 (designed binder)
chain: GVTLFVALYDYNATRWTDLSFHKGEKFQILDGDSGDWWEARSLTTGETGYIPSNYVAPVDSIQ

inhibition of IL-17A induced IL-6 production in NHDF cells, IC50 [5]: ~6 nM
Kd [6]: 31 nM
B9: E4 (IL-17A binder) (designed binder)
chain: GVTLFVALYDYKAFWPGDISFHKGEKFQILRTSDGEWWVARSLTTGEEGYIPSNYVAPVDSIQ
notes: also called clone E4

binding result [2]: no binding (tested: 200 nM)
B14: E3 (designed binder)
chain: GVTLFVALYDYQADRWTDLSFHKGEKFQILNASGPGDWWEARSLTTGETGYIPSNYVAPVDSIQ
